± gives the standard error. Variants at the floor of the assay are shown more often than the library holds them.
B1: glmS ribozyme (parent)
chain: AUAAAAGCGCCAGAACUACAGAAAUGUAGUUGACGAGGAGGAGGUUUAUCGAAUUUUCGGCGGAUGCCUCCAAA

Variants of: B1
Test: self-cleavage kobs at 2500 uM GlcN6P; higher = faster cleavage; RNA array
Conditions: with glucosamine-6-phosphate
Summary of the method: (§1)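 kobs was derived by fitting per-tile medians to one- or two-exponential decays after normalising signals to baseline and to non-cleaving reference variants. Those signals came from barcoded ribozyme variants transcribed in situ by E. coli RNA polymerase on sequenced MiSeq chips, followed through a hybridised Cy3 probe at 37 °C and imaged over ~14 h. Glucosamine-6-phosphate (40 μM to 10 mM) in HEPES/KCl/Mg(OAc)2 buffer was flowed in. Weighted Michaelis–Menten fits across concentrations then gave kcat and KM.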

Variant	self-cleavage kobs at 2500 uM GlcN6P [s⁻¹]
A14G G29C G40C U55A C61U C71U	< 1e-05
G13C C58G G59A	< 1e-05
C10U A33G A39G G41C C67U	< 1e-05
A14G U56G C71U	0.0458 ± 0.019
A14C U31C U47A G59U	< 1e-05
G13U G44C G51A A52G	< 1e-05
A12G U31G C61U	< 1e-05
G32A C50A A52U G60U G62U	< 1e-05
C16A G32U G43U C61G	< 1e-05
C10G A14U A64C C71U	< 1e-05
C10A G38C C58G	< 1e-05
A33U G35C C58G	< 1e-05
A33G G43A U49G	< 1e-05
C11A U30C C34U U46A	< 1e-05
G35C A53U	< 1e-05
C11U G32A G63C C68U	< 1e-05
G29U A52C C71A	< 1e-05
C11U A36U G60U	< 1e-05
C10A C34G U47C A48G U69G	< 1e-05
A14G G40C A52U G63A G66C	< 1e-05
A33U G41C G43C U55G	< 1e-05
A36U U55G C67A	< 1e-05
U30C G44A G66U	< 1e-05
G26U G44U C58G C68U	< 1e-05
A33U A39C G62C	< 1e-05
C34U U47G G51U	< 1e-05

Variant	self-cleavage kobs at 2500 uM GlcN6P [s⁻¹]
A33C A36U G37C	< 1e-05
A12U G35C U46A U57A C70A	< 1e-05
A12G G29U C58A G59U C67A	< 1e-05
C11A G60U C70U	< 1e-05
C10A A12C G51U	< 1e-05
A12G A14G G62U C67A	< 1e-05
G37U G40A G63A	< 1e-05
C11U A36U U46A U47A A52C C58U	< 1e-05
C34U G40A G41C A48C A52G	< 1e-05
C34G U54C C70G	< 1e-05
C16U U49G G59C C68U	< 1e-05
G35U A36G U45C U65G	< 1e-05
C16G G37U G44U U47A G51C C68A	< 1e-05
G29U G32C U47C C67G	< 1e-05
A14C G60U C67G C71A	< 1e-05
A12C A36G A42U U45A G51U	< 1e-05
G35U G51U A53U	< 1e-05
C16U A42G G62U	< 1e-05
U30C G41A A48C G62C C68G	< 1e-05
C16G G43C C68A	< 1e-05
A12U G43C A52C G59U C67G	< 1e-05
C11G A14C G41C C50U	< 1e-05
G9U C10A G35A G59U G60A	< 1e-05
C16U U30G G32A C68U	7.75e-05 ± 3.2e-05
U31G C34A U45G	< 1e-05
U30A U46G A53U	0.000335 ± 9.7e-05

Variant	self-cleavage kobs at 2500 uM GlcN6P [s⁻¹]
A12C C16U A39U	0.00306 ± 0.00084
C16A G32U U55G	0.000117 ± 3.5e-05
G13A G41A	3.77e-05 ± 1.2e-05
U31C A39C C70A	< 1e-05
C10G A48U U49A A52U	< 1e-05
G35C U47C G60U C70A	< 1e-05
G38C U47C U49A	< 1e-05
A14U C61A C71A	< 1e-05
U31G U45G U47G G51C A53C C61A U65C	< 1e-05
A12U G43A G60U	< 1e-05
C10U G32C U47C	< 1e-05
A15C G40U C50U C68G	< 1e-05
A12G G41U G59A	< 1e-05
G35U A36G U54C	< 1e-05
A14U A15G G35U U45C	< 1e-05
A33G A39C U45A	< 1e-05
G35C G37C C68G	< 1e-05
U31G G44A A52C	< 1e-05
C34U A53C	< 1e-05
A33C G41C C67G	< 1e-05
A15U G35U C67G	< 1e-05
G32U A53C U55A	5.38e-05 ± 1.8e-05
C16U A42C U49G U55G G59C	< 1e-05
G37C A52G U56G	< 1e-05
C10U G35U A36U A42U U55C C68U	< 1e-05
G35U U56A C71U	< 1e-05

Variant	self-cleavage kobs at 2500 uM GlcN6P [s⁻¹]
A15G U45C C61A C68G C71A	< 1e-05
G38A C50A A64C	< 1e-05
A12U G13C U54C	< 1e-05
A12C C16A G41U G44A	< 1e-05
A36U A42U U45G U65A	< 1e-05
C10A C11G A12U A52U	< 1e-05
A12U U31C G44U C67A	0.00303 ± 0.001
C11U A12U U46A U49A G51A G60C	< 1e-05
C11G U49G U55G	< 1e-05
U30C G35U G51A A53U U56C	< 1e-05
G35A G43U G60U G62A	< 1e-05
C10U A14G A52U C67U	< 1e-05
U31G G37U U56G	< 1e-05
G37A U65A	7.66e-05 ± 1.9e-05
C10A G32U C58G	< 1e-05
A36G G41U G60A	< 1e-05
C10A U47A C70A	0.000334 ± 0.00015
A14U G32U A36G	< 1e-05
C34A G43A C50G U54C	< 1e-05
G13A G44U U45A U57A U69C	< 1e-05
A33U C67A U69A	< 1e-05
C11A G29C G44C	< 1e-05
G37C C50A	< 1e-05
G37C C61U C71G	< 1e-05
G26U G32A G63A C71U	< 1e-05
G38C U49C A52G	< 1e-05

Variant	self-cleavage kobs at 2500 uM GlcN6P [s⁻¹]
U30C G37C G38C C61U	< 1e-05
A15C U31C U56C C61U	< 1e-05
G35C A42G U56C G60U C70G	< 1e-05
C10U A12U G44U	< 1e-05
A12U G41C U46G C68A	< 1e-05
G35A U54A G60U	< 1e-05
A12C G41A U69G	< 1e-05
G35C A42U A48G	< 1e-05
A15U A39G A52G	0.000162 ± 6.5e-05
C11U A33U G59A	0.000169 ± 6.1e-05
G13A U47A G66A	0.000103 ± 2.2e-05
G37A U65G C67A	4.8e-05 ± 1.1e-05
C10A G60C G63C C67A C68G C70G C71U	4.85e-05 ± 2.2e-05
G37C A53C G60U	< 1e-05
C10U G44A A52U	< 1e-05
A36C A42U U46A	< 1e-05
A15U G43U A53U C68U	8.35e-05 ± 3.5e-05
G29A G32U A33C G40C	< 1e-05
C10G G37A C67G C70U	< 1e-05
C34U U54G G63U	< 1e-05
C11U U49C U56G	< 1e-05
C16A G35A G37C G66A	< 1e-05
C10A C16U A36G A48C	< 1e-05
C10A C34U G40U C71A	< 1e-05
A12C A14U U31C U56G	0.0134 ± 0.0063
A14G G62C G63C	< 1e-05

Variant	self-cleavage kobs at 2500 uM GlcN6P [s⁻¹]
A20C A48G	0.000134 ± 2.6e-05
A14U G29U A48U A53U G62U	< 1e-05
G13U A14G C50A	< 1e-05
G32A G41A U49G	< 1e-05
A33G A42U C70U	< 1e-05
A36U G51U G63U	< 1e-05
C11G A52U C68U	< 1e-05
G29A A42U G44U C68G	< 1e-05
G35A C50G U54G A64C	7.23e-05 ± 2.7e-05
A12G A15G U54G C61U A64G	< 1e-05
U30C G60U C71G	< 1e-05
U30C G41U A42C	< 1e-05
G37A U55C U65C C67G C70G	< 1e-05
A15U G35U G38U U49G U54A	< 1e-05
G32A A53U U56A C71U	4.22e-05 ± 1e-05
A12C U56A C58G	0.00043 ± 8.1e-05
C16G C50G	6.05e-05 ± 1.4e-05
C11U U45G U54A	0.000119 ± 2.7e-05
C16U G40U U49C C50G C68U C71A	< 1e-05
U30A G32U G44A U49G	< 1e-05
A15G U31A C34A	< 1e-05
A33C G40A A48C G51C G60C	< 1e-05
C10G G43U U55G U57A	< 1e-05
C34A U54G	< 1e-05

Variants of: B1
Test: self-cleavage kobs at 10000 uM GlcN6P; higher = faster cleavage; RNA array
Conditions: with glucosamine-6-phosphate
Summary of the method: as §1

Variant	self-cleavage kobs at 10000 uM GlcN6P [s⁻¹]
C10U A33G A39G G41C C67U	< 1e-05
A12G U31G C61U	< 1e-05
G35C A53U	< 1e-05
G37U G40A G63A	< 1e-05
G35U A36G U45C U65G	< 1e-05
A14C G60U C67G C71A	< 1e-05
C16G G43C C68A	< 1e-05
C16U U30G G32A C68U	0.000157 ± 5.1e-05
C16A G32U U55G	0.000315 ± 4.6e-05
G13A G41A	5.25e-05 ± 8.1e-06
U31G U45G U47G G51C A53C C61A U65C	< 1e-05
C34U A53C	< 1e-05
U30C G35U G51A A53U U56C	< 1e-05
C10U A14G A52U C67U	< 1e-05
G37A U65A	0.000124 ± 1.4e-05
G37C C50A	< 1e-05
G38C U49C A52G	< 1e-05
A12U G41C U46G C68A	< 1e-05
A15U A39G A52G	0.000571 ± 0.00013
C11U A33U G59A	0.000262 ± 5.4e-05
G37C A53C G60U	< 1e-05
A14U G29U A48U A53U G62U	< 1e-05
C11U U45G U54A	0.000152 ± 3.4e-05
A15G U31A C34A	< 1e-05
C34A U54G	< 1e-05
